# Test results published in publication PMC12820563.
# Some of the results follow. The list includes weakly bound sequences.
# Biological target: T1, MBP-FoxP3dN (UniProt Q99JB6)
# T1 sequence: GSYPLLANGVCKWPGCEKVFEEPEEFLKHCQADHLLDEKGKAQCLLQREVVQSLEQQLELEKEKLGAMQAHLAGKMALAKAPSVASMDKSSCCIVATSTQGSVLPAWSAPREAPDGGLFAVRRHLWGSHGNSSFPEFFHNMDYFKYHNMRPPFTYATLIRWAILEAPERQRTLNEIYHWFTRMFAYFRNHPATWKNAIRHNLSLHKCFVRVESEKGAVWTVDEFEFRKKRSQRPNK
# Test: PD-seq (MBP pull-down with sequencing)
# Conditions: 20 mM Tris-HCl pH 7.5, 100 mM NaCl, 1.5 mM MgCl2, 0.4 uM protein, 0.1 uM dsDNA library, 30 min, room temperature, amylose pull-down; high values mean tight binding; double strand, one strand shown
row,Sequence,binding signal (RPM ratio (pull-down/input))
1,GATGATTGTTCTCCCAGCTGATGAATTAGGGAGATCGAGTAAACAAATTTTCCTAATCTTTCTGTTCAAGCGCCATCTAC,0.213
2,GATGATTGTTCTCCCAGCTGATGAATTATACTCATCGAGTAAACAAATTTTCCTAATCTTTCTGTTCAAGCGCCATCTAC,0.569
3,GATGATTGTTCTCCCAGCTGATGAATTTTATAATTCGAGTAAACAAATTTTCCTAATCTTTCTGTTCAAGCGCCATCTAC,0.576
4,GATGATTGTTCTCCCAGCTGATGAATTAGGCATGTCGAGTAAACAAATTTTCCTAATCTTTCTGTTCAAGCGCCATCTAC,4.56
5,GATGATTGTTCTCCCAGCTGATGAATTTCCCTAGTCGAGTAAACAAATTTTCCTAATCTTTCTGTTCAAGCGCCATCTAC,0.205
6,GATGATTGTTCTCCCAGCTGATGAATTGCATTTATCGAGTAAACAAATTTTCCTAATCTTTCTGTTCAAGCGCCATCTAC,4.07
7,GATGATTGTTCTCCCAGCTGATGAATTGCCCAGATCGAGTAAACAAATTTTCCTAATCTTTCTGTTCAAGCGCCATCTAC,0.287
8,GATGATTGTTCTCCCAGCTGATGAATTTTCTTACTCGAGTAAACAAATTTTCCTAATCTTTCTGTTCAAGCGCCATCTAC,0.302
9,GATGATTGTTCTCCCAGCTGATGAATTGCCAACGTCGAGTAAACAAATTTTCCTAATCTTTCTGTTCAAGCGCCATCTAC,0.499
10,GATGATTGTTCTCCCAGCTGATGAATTTCATCCTTCGAGTAAACAAATTTTCCTAATCTTTCTGTTCAAGCGCCATCTAC,0.335
11,GATGATTGTTCTCCCAGCTGATGAATTAGCGCAATCGAGTAAACAAATTTTCCTAATCTTTCTGTTCAAGCGCCATCTAC,3.66
12,GATGATTGTTCTCCCAGCTGATGAATTCGAACACTCGAGTAAACAAATTTTCCTAATCTTTCTGTTCAAGCGCCATCTAC,0.457
13,GATGATTGTTCTCCCAGCTGATGAATTCTCCCTGTCGAGTAAACAAATTTTCCTAATCTTTCTGTTCAAGCGCCATCTAC,0.215
14,GATGATTGTTCTCCCAGCTGATGAATTTACATCGTCGAGTAAACAAATTTTCCTAATCTTTCTGTTCAAGCGCCATCTAC,0.725
15,GATGATTGTTCTCCCAGCTGATGAATTTTCCCGCTCGAGTAAACAAATTTTCCTAATCTTTCTGTTCAAGCGCCATCTAC,0.165
16,GATGATTGTTCTCCCAGCTGATGAATTTGACGTTTCGAGTAAACAAATTTTCCTAATCTTTCTGTTCAAGCGCCATCTAC,1.43
17,GATGATTGTTCTCCCAGCTGATGAATTCGATAAGTCGAGTAAACAAATTTTCCTAATCTTTCTGTTCAAGCGCCATCTAC,0.283
18,GATGATTGTTCTCCCAGCTGATGAATTACACCCTTCGAGTAAACAAATTTTCCTAATCTTTCTGTTCAAGCGCCATCTAC,0.428
19,GATGATTGTTCTCCCAGCTGATGAATTCAAACAATCGAGTAAACAAATTTTCCTAATCTTTCTGTTCAAGCGCCATCTAC,1.64
20,GATGATTGTTCTCCCAGCTGATGAATTATATTAATCGAGTAAACAAATTTTCCTAATCTTTCTGTTCAAGCGCCATCTAC,0.595
21,GATGATTGTTCTCCCAGCTGATGAATTAGGTAGTTCGAGTAAACAAATTTTCCTAATCTTTCTGTTCAAGCGCCATCTAC,0.919

row,Sequence,binding signal (RPM ratio (pull-down/input))
1,GATGATTGTTCTCCCAGCTGATGAATTTGTTTTTTCGAGTAAACAAATTTTCCTAATCTTTCTGTTCAAGCGCCATCTAC,6.93
2,GATGATTGTTCTCCCAGCTGATGAATTTCCAAGCTCGAGTAAACAAATTTTCCTAATCTTTCTGTTCAAGCGCCATCTAC,0.233
3,GATGATTGTTCTCCCAGCTGATGAATTAGATCGATCGAGTAAACAAATTTTCCTAATCTTTCTGTTCAAGCGCCATCTAC,0.257
4,GATGATTGTTCTCCCAGCTGATGAATTCGTTTCTTCGAGTAAACAAATTTTCCTAATCTTTCTGTTCAAGCGCCATCTAC,1.72
5,GATGATTGTTCTCCCAGCTGATGAATTAAAGGTCTCGAGTAAACAAATTTTCCTAATCTTTCTGTTCAAGCGCCATCTAC,0.359
6,GATGATTGTTCTCCCAGCTGATGAATTTATTGGATCGAGTAAACAAATTTTCCTAATCTTTCTGTTCAAGCGCCATCTAC,0.963
7,GATGATTGTTCTCCCAGCTGATGAATTGGTTTCTTCGAGTAAACAAATTTTCCTAATCTTTCTGTTCAAGCGCCATCTAC,1.39
8,GATGATTGTTCTCCCAGCTGATGAATTAGTACAATCGAGTAAACAAATTTTCCTAATCTTTCTGTTCAAGCGCCATCTAC,0.831
9,GATGATTGTTCTCCCAGCTGATGAATTTGTCTCGTCGAGTAAACAAATTTTCCTAATCTTTCTGTTCAAGCGCCATCTAC,2.57
10,GATGATTGTTCTCCCAGCTGATGAATTAGGTTCATCGAGTAAACAAATTTTCCTAATCTTTCTGTTCAAGCGCCATCTAC,0.598
11,GATGATTGTTCTCCCAGCTGATGAATTCCCCATATCGAGTAAACAAATTTTCCTAATCTTTCTGTTCAAGCGCCATCTAC,0.264
12,GATGATTGTTCTCCCAGCTGATGAATTACCAATGTCGAGTAAACAAATTTTCCTAATCTTTCTGTTCAAGCGCCATCTAC,0.364
13,GATGATTGTTCTCCCAGCTGATGAATTGGGCTACTCGAGTAAACAAATTTTCCTAATCTTTCTGTTCAAGCGCCATCTAC,1.21
14,GATGATTGTTCTCCCAGCTGATGAATTCCGAAATTCGAGTAAACAAATTTTCCTAATCTTTCTGTTCAAGCGCCATCTAC,0.558
15,GATGATTGTTCTCCCAGCTGATGAATTCTCTAGATCGAGTAAACAAATTTTCCTAATCTTTCTGTTCAAGCGCCATCTAC,0.18
16,GATGATTGTTCTCCCAGCTGATGAATTACTCGTGTCGAGTAAACAAATTTTCCTAATCTTTCTGTTCAAGCGCCATCTAC,0.429
17,GATGATTGTTCTCCCAGCTGATGAATTTTACCGTTCGAGTAAACAAATTTTCCTAATCTTTCTGTTCAAGCGCCATCTAC,0.311
18,GATGATTGTTCTCCCAGCTGATGAATTCACGCGGTCGAGTAAACAAATTTTCCTAATCTTTCTGTTCAAGCGCCATCTAC,0.589
19,GATGATTGTTCTCCCAGCTGATGAATTGCCCGTATCGAGTAAACAAATTTTCCTAATCTTTCTGTTCAAGCGCCATCTAC,0.615
20,GATGATTGTTCTCCCAGCTGATGAATTTAAGGTTTCGAGTAAACAAATTTTCCTAATCTTTCTGTTCAAGCGCCATCTAC,0.51
21,GATGATTGTTCTCCCAGCTGATGAATTGGATTAGTCGAGTAAACAAATTTTCCTAATCTTTCTGTTCAAGCGCCATCTAC,0.801

row,Sequence,binding signal (RPM ratio (pull-down/input))
1,GATGATTGTTCTCCCAGCTGATGAATTAAGAGAGTCGAGTAAACAAATTTTCCTAATCTTTCTGTTCAAGCGCCATCTAC,0.224
2,GATGATTGTTCTCCCAGCTGATGAATTCCGAGCGTCGAGTAAACAAATTTTCCTAATCTTTCTGTTCAAGCGCCATCTAC,0.4
3,GATGATTGTTCTCCCAGCTGATGAATTAACCTATTCGAGTAAACAAATTTTCCTAATCTTTCTGTTCAAGCGCCATCTAC,0.33
4,GATGATTGTTCTCCCAGCTGATGAATTAGTGACGTCGAGTAAACAAATTTTCCTAATCTTTCTGTTCAAGCGCCATCTAC,0.653
5,GATGATTGTTCTCCCAGCTGATGAATTCCTTTCGTCGAGTAAACAAATTTTCCTAATCTTTCTGTTCAAGCGCCATCTAC,0.376
6,GATGATTGTTCTCCCAGCTGATGAATTGTGCGCGTCGAGTAAACAAATTTTCCTAATCTTTCTGTTCAAGCGCCATCTAC,3.85
7,GATGATTGTTCTCCCAGCTGATGAATTTATGTGATCGAGTAAACAAATTTTCCTAATCTTTCTGTTCAAGCGCCATCTAC,1.21
8,GATGATTGTTCTCCCAGCTGATGAATTCTGACTCTCGAGTAAACAAATTTTCCTAATCTTTCTGTTCAAGCGCCATCTAC,1.67
9,GATGATTGTTCTCCCAGCTGATGAATTCTTAGCCTCGAGTAAACAAATTTTCCTAATCTTTCTGTTCAAGCGCCATCTAC,0.373
10,GATGATTGTTCTCCCAGCTGATGAATTTGTTTCGTCGAGTAAACAAATTTTCCTAATCTTTCTGTTCAAGCGCCATCTAC,5.96
11,GATGATTGTTCTCCCAGCTGATGAATTAATCTCATCGAGTAAACAAATTTTCCTAATCTTTCTGTTCAAGCGCCATCTAC,0.347
12,GATGATTGTTCTCCCAGCTGATGAATTTATTTGTTCGAGTAAACAAATTTTCCTAATCTTTCTGTTCAAGCGCCATCTAC,6.33
13,GATGATTGTTCTCCCAGCTGATGAATTTTCAGGATCGAGTAAACAAATTTTCCTAATCTTTCTGTTCAAGCGCCATCTAC,0.181
14,GATGATTGTTCTCCCAGCTGATGAATTCGGAGTCTCGAGTAAACAAATTTTCCTAATCTTTCTGTTCAAGCGCCATCTAC,1.21
15,GATGATTGTTCTCCCAGCTGATGAATTATTCTGGTCGAGTAAACAAATTTTCCTAATCTTTCTGTTCAAGCGCCATCTAC,0.246
16,GATGATTGTTCTCCCAGCTGATGAATTAATCCCCTCGAGTAAACAAATTTTCCTAATCTTTCTGTTCAAGCGCCATCTAC,0.379
17,GATGATTGTTCTCCCAGCTGATGAATTAGAGTACTCGAGTAAACAAATTTTCCTAATCTTTCTGTTCAAGCGCCATCTAC,0.674
18,GATGATTGTTCTCCCAGCTGATGAATTCACGCATTCGAGTAAACAAATTTTCCTAATCTTTCTGTTCAAGCGCCATCTAC,5.67
19,GATGATTGTTCTCCCAGCTGATGAATTCCTACCGTCGAGTAAACAAATTTTCCTAATCTTTCTGTTCAAGCGCCATCTAC,0.225
20,GATGATTGTTCTCCCAGCTGATGAATTGGCAAGCTCGAGTAAACAAATTTTCCTAATCTTTCTGTTCAAGCGCCATCTAC,0.36
21,GATGATTGTTCTCCCAGCTGATGAATTGTGCGCATCGAGTAAACAAATTTTCCTAATCTTTCTGTTCAAGCGCCATCTAC,2.13
